Measurements from PubChem BioAssay AID686971 (National Center for Advancing Translational Sciences (NCATS), 2013).
Values joined by “and” are separate entries in the source; they are usually repeats but may differ in a detail not shown here. Equal values may be shown once. The whole screen tested about 360,000 compounds, of which about 7,500 (2.1%) were called active. Inconclusive means that the source gave no clear call. Such entries were picked first, then a sample of the others. Calls follow the shape of the dose curve; as a rule, active = well fitted cell-killing curve with a large enough effect; inconclusive = small, poorly fitted or top-dose-only effect, or effect the other way, or another doubt; inactive = no such curve, though single readings can be large or run the other way. A potency beside an inconclusive call is a rough fit, not a confirmed value.

Assay: qHTS for induction of synthetic lethality in tumor cells producing 2HG: qHTS for the HT-1080-IDH1KD cell line;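 as to activity, negative = toxicity: 0% = DMSO wells and -100% = cell-free medium wells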
Details: HT-1080 IDH1 knockdown viability, ATP luminescence, 48 h; activity, negative = toxicity: at 46.1 µM (top of the series) unless noted
Outline: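 Cytotoxicity counter-line: IDH1KD HT-1080, 48 h, CellTiter-Glo. Curves classed by r2, magnitude and activity.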
Potency is read from the fitted curve at half-maximal effect; tags tell the direction and shape of the fitted curve.

SMILES | Potency | activity, negative = toxicity
CCc1cccc2c1NC(=O)C21N2CCCC2C(C(=O)c2ccc3ccccc3c2)C12C(=O)Nc1ccccc12 (configuration not stated) | inactive | –
COc1cc(OC)c(-c2c3cc(O)c(=O)cc-3oc3cc(O)c(O)cc23)cc1OC | inconclusive: 18.4 µM [cytotoxic, partial curve] | –
O=C(NC1CCCCC1)N(C1=NCCCCC1)c1ccc(Br)cc1 | inactive | –
Cc1ccc(NC(=O)C(C)Oc2ccccc2)cc1S(=O)(=O)N1CCCCCC1 (configuration not stated) | inactive | –
COc1ccc(C(C)(O)c2nc(-c3ccc(N(C)C)cc3)cs2)cc1 (configuration not stated) | inconclusive: 20.6 µM [cytotoxic, single point] | –
COc1ccc(Cl)cc1CC1(C)C(=O)Nc2ccc(S(=O)(=O)NC3CCCCC3)cc21 (configuration not stated) | inconclusive: 18.4 µM [cytotoxic, single point] | –
COc1ccc(O)c(-c2cc(-c3cccc(Br)c3)n[nH]2)c1 | inconclusive: 29.1 µM [cytotoxic, single point] | –
O=C(C[n+]1cccc2ccccc21)c1ccc([N+](=O)[O-])cc1 | inconclusive: 18.4 µM [cytotoxic, partial curve] | –
CC1(C(=O)Nc2cccc3ncccc23)CCN1C(=O)Cc1ccc(-c2ccccc2)cc1 (configuration not stated) | inconclusive: 23.1 µM [cytotoxic, single point] | –
C[C@H](CO)N1C[C@H](C)[C@H](CN(C)S(=O)(=O)c2cccc(F)c2)OCc2ccccc2-c2c(n(C)c3ccccc23)C1=O | inconclusive: 20.6 µM [cytotoxic, single point] | –
C[C@@H](c1ccccc1)N1C[C@@H](COCc2ccccc2)Oc2cc(N3CC[C@H](O)C3)ccc2S1(=O)=O | – | inconclusive: -31.7% [cytotoxic]
Nc1nonc1-c1nc2ccccc2n1CC(=O)N1CCN(c2ccc(F)cc2)CC1 | inactive | –
Cc1ccc2nc(C3CCCCC3)c(CC(C)(C)C)n2c1 | inconclusive: 18.4 µM [cytotoxic, single point] | –
COc1cc(-c2cc(NC=O)c3ncc(-c4ccc(C(C)=O)cc4)n3c2)cc(OC)c1OC | inconclusive: 10.3 µM [cytotoxic, partial curve] | –
COc1ccccc1CN(Cc1nc2ccccc2c(=O)[nH]1)C(=O)Nc1ccccc1C | active: 11.2 µM | –
COc1ccc(C(=O)NNC(=S)NC(=O)c2ccco2)cc1 | inconclusive: 18.4 µM [cytotoxic, partial curve] | –
COc1ccc(S(=O)(=O)NC(=O)C2(C)CCN2C(=O)C2(c3ccc(Cl)cc3)CCC2)cc1 (configuration not stated) | inactive | –
O=C1C=CC(=O)N1c1ccc(N2CCCCC2)cc1 | inconclusive: 29.1 µM [cytotoxic, single point] | –
COc1cc(NC(=O)c2nccn2C)cc(C(=O)Nc2cccc(C(F)(F)F)c2)c1 | inconclusive: 16.4 µM [cytotoxic, partial curve] and inconclusive: 25.9 µM [cytotoxic, single point] | –
COC(=O)c1cc(OC)c(OC)cc1NCC(=O)Nc1ccc(C)cc1 | inactive | –
COc1ccc(-c2nc(CSCC(=O)N3CCC(C(N)=O)CC3)c(C)o2)cc1OC | inactive | –
Cc1ccc(Nc2nc(N/N=C/c3c[nH]c4ccccc34)nc(N3CCOCC3)n2)cc1 | inconclusive: 18.4 µM [cytotoxic, partial curve] | –
OCC1(CCc2ccccc2)CCN(Cc2ccc(OC(F)F)cc2)CC1 | inconclusive: 29.1 µM [cytotoxic, single point] | –

SMILES | Potency | activity, negative = toxicity
CCCc1cc(C(=O)NNC(=S)NC2CCCCC2)cs1 | inactive | –
O=C(COc1ccccc1Cl)Nc1ccc(C(=O)N2CCCCC2)cc1 | inactive | –
Cc1cc(NC(=O)C2CCCCC2)n(-c2nc3ccccc3[nH]2)n1 | inconclusive: 23.1 µM [cytotoxic, single point] | –
COc1ccc(OCCOCCOc2ccc(C)cc2[N+](=O)[O-])cc1 | inactive | –
COc1ccccc1NC(=O)CCc1nnc2ccc(N3CCN(C)CC3)nn12 | inactive | –
Cc1cccc2cc(CN(CCCO)C(=O)Nc3ccc(Cl)cc3)c(=O)[nH]c12 | inconclusive: 14.6 µM [cytotoxic, partial curve] | –
O=C(Nc1cccc(-c2cccc(Cl)c2)c1)C1CCN(Cc2ccccn2)CC1 | inconclusive: 29.1 µM [cytotoxic, single point] | –
CCSc1nnc(NC(=O)C(CC)(C(F)(F)F)C(F)(F)F)s1 | inconclusive: 14.6 µM [cytotoxic, partial curve] | –
CCOC(=O)/C=C/C(=O)OCC(=O)NC(c1ccccc1)c1ccccc1 | active: 20.6 µM | –
Fc1cccc(-c2cncc(N3CCN(CCN4CCCC4)CC3)n2)c1 | inconclusive: 18.4 µM [cytotoxic, single point] | –
CCOC(=O)c1ccccc1NC(=O)Cn1c(=O)n(Cc2ccccc2)c(=O)c2c(C)c(C)sc21 | inactive | –
CCC(C)(C)NC(=O)C(c1ccc(C)cc1)N(Cc1ccco1)C(=O)Cn1nnc2ccccc21 (configuration not stated) | inconclusive: 29.1 µM [cytotoxic, single point] | –
O=C(CSc1nnc(-c2ccncc2)n1Cc1ccco1)Nc1nc(-c2ccccc2)cs1 | inconclusive: 14.6 µM [cytotoxic, partial curve] | –
CC1=C(C(=O)N(C(C)C)C(C)C)CC(CC(=O)NCc2cccs2)C(=O)N1Cc1ccc(C(C)(C)C)cc1 (configuration not stated) | inconclusive: 23.1 µM [cytotoxic, single point] | –
FC(F)Oc1ccc(NC(=S)NC2CCCCCCC2)cc1 | inconclusive: 25.9 µM [cytotoxic, single point] | –
N=c1c(C(=O)NCC2CCCO2)cc2c(=O)n3ccccc3nc2n1Cc1ccccc1Cl (configuration not stated) | inactive | –
CC(C)(C)NC(=O)COC(=O)c1cc(Cl)ccc1[N+](=O)[O-] | – | inconclusive: 30.4%
O=C(CN1C(=O)NC2(CCOc3ccccc32)C1=O)c1ccc[nH]1 (configuration not stated) | inactive | –
N=c1n(CCc2ccccc2)c2ccccc2n1Cc1ccccc1F | inconclusive: 14.6 µM [cytotoxic, partial curve] | –
COc1ccc(CNC(=O)C[C@H]2C[C@H](C(=O)N(C(C)C)C(C)C)[C@@]3(C)c4[nH]c5ccc(Cl)cc5c4CCN3C2=O)cc1OC | inactive | –
CCc1nc2ccc(C(=O)NCc3ccccc3OC)cn2c1N(C)Cc1ccc(OC)cc1 | inconclusive: 20.6 µM [cytotoxic, single point] | –
CCOc1ccc(NC(=O)COc2ccc3c(c2)OCO3)cc1 | inconclusive: 20.6 µM [cytotoxic, partial curve] | –
COc1ccc(-n2nc3c(N4CCC(C(=O)NCC(C)c5ccccc5)CC4)nnc(C)c3c2C)cc1 (configuration not stated) | inconclusive: 23.1 µM [cytotoxic, single point] | –

SMILES | Potency | activity, negative = toxicity
CN(C)c1nc(N)c2ncc(=S)[nH]c2n1 | inactive | –
CCCCC[C@H](C)N1C[C@H](COCc2ccccc2)Oc2cc(N3CC[C@@H](O)C3)ccc2S1(=O)=O | inconclusive: 18.4 µM [cytotoxic, single point] | –
CCOC(=O)c1sc2nc(C)nc(NCc3ccc(Cl)cc3)c2c1C | inconclusive: 14.6 µM [cytotoxic, single point] | –
N#Cc1ccc(CSc2nnc(-c3c[nH]c4ccccc34)n2-c2ccccc2)cc1 | inconclusive: 29.1 µM [cytotoxic, single point] | –
CNC(=O)c1sc(N2N=C3/C(=C/c4ccccc4)CCCC3C2c2ccccc2)nc1C (configuration not stated) | inconclusive: 4.47 µM [cytotoxic, full curve] | –
COc1ccc(Cl)cc1N1CC(C(=O)Nc2nccs2)CC1=O (configuration not stated) | inconclusive: 18.4 µM [cytotoxic, partial curve] | –
COc1ccc(N2CCN(C(=O)C(=O)c3cc(OC)c4ccccc4c3)CC2)cc1 | inconclusive: 29.1 µM [cytotoxic, single point] | –
O=C(COC(=O)COc1ccc2ccccc2c1)NC1CCCc2ccccc21 (configuration not stated) | inactive | –
Cc1oc(-c2cc(F)ccc2F)nc1CN1CCC(C(=O)N2CCOCC2)CC1 | inactive | –
O=C(Cc1cccs1)N1CCN(S(=O)(=O)c2cc(Cl)ccc2Cl)CC1 | inactive | –
CN=C1SC(CC(=O)Nc2ccccc2F)C(=O)N1/N=C/c1ccc(O)c(OC)c1 (configuration not stated) | inconclusive: 11.6 µM [cytotoxic, partial curve] | –
CN(CCCn1cnc2c(OCc3ccccc3)ncnc21)Cc1ccco1 | inactive | –
CCN(CC)C(=O)CSc1nc2ccccc2c(=O)n1CC1CCCCC1 | inconclusive: 18.4 µM [cytotoxic, single point] | –
COc1ccc(-n2nnc3c(SCC(=O)Nc4ccccc4F)ncnc32)cc1 | inconclusive: 20.6 µM [rising, single point] | –
O=C1c2cccc(-c3ccc(C(F)(F)F)cc3)c2C2CCCCN12 (configuration not stated) | inconclusive: 20.6 µM [cytotoxic, single point] | –
O=S(=O)(c1ccc(Cl)cc1)N1CCN(C(=S)Nc2ccc(F)c(Cl)c2)CC1 | – | inconclusive: -32.3% [cytotoxic]
Cc1nn(Cc2ccc(F)cc2)c(C)c1NC(=O)c1cnn2c1NC(c1cccs1)CC2C(F)(F)F (configuration not stated) | inconclusive: 35.5 µM [cytotoxic, single point] | –
O=c1c2ccccc2c(-c2ccccc2)nn1Cc1ccc(Cl)cc1 | inconclusive: 29.1 µM [cytotoxic, single point] | –
COc1ccc(Cc2nnc(N/N=C/c3ccc(O)cc3O)[nH]c2=O)cc1OC | inconclusive: 10.3 µM [cytotoxic, partial curve] | –
CC(=O)CC1(O)C(=O)Nc2ccccc21 (configuration not stated) | inactive | –
O=C(Nc1nc2ccccc2[nH]1)c1cc2ccccc2o1 | active: 7.31 µM | –
